# Out of some 55,000 compounds screened, about 340 (0.62%) were called active. The shares of active, inactive and inconclusive entries below differ from those in the screen. Calls follow the shape of the dose curve; as a rule, active = well fitted cell-killing curve with a large enough effect; inconclusive = small, poorly fitted or top-dose-only effect; inactive = no such curve, though single readings can be large or run the other way. Potencies beside an inconclusive call are fits to weak or partial responses and may not hold up.
# Assay: qHTS Screen for Compounds that Selectively Target Cancer Cells with p53 Mutations: Cytotoxicity of p53 Null Cells at the Permissive Temperature; also: nearly all actives have a fitted effect of over 55% in size
# Settings: H1299-neo p53 null cells, ATP luminescence, 24 h, 32C; series mostly up to 46.1 µM
# In short: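 H1299-neo (p53 null) cells, 600/well, treated 24 h at 32C with compound up to 46 uM; ATPlite luminescence viability, normalized to DMSO and 100 uM tamoxifen; AC50 by Hill fit.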
# Potency is read from the fitted curve at half-maximal effect; tags tell the direction and shape of the fitted curve.
row,SMILES,Potency
1,Cc1ccc(C(=O)Nc2nc3ccc(S(C)(=O)=O)cc3s2)o1,active: 12.6 µM
2,COc1ccc(S(=O)(=O)Nc2cccc(-c3ccc(N4CCC(C)CC4)nn3)c2)cc1OC,active: 3.16 µM
3,O=C(NCc1ccc2c(c1)CCN2C(=O)c1ccccc1)c1cc2ccccc2[nH]1,"inconclusive: 5.62 µM [cytotoxic, single point]"
4,COc1ccc2c(Sc3ccccc3)c(C(=O)NCCc3ccc(Cl)cc3)[nH]c2c1,"inconclusive: 10 µM [cytotoxic, partial curve]"
5,CC(C)c1ccc(S(=O)(=O)c2nnn3c2nc(N2CCN(C)CC2)c2sccc23)cc1,inactive
6,COc1ccccc1NC(=O)c1cc2ccc3cccnc3c2[nH]1,"inconclusive: 15.8 µM [cytotoxic, partial curve]"
7,Cc1ccc(NC(=O)Cn2c(=O)n(Cc3ccco3)c(=O)c3ccc(C(=O)NC4CCCC4)cc32)c(C)c1,inactive
8,CCOc1ccc(C(=O)NCC(c2ccc3c(c2)OCO3)N2CCN(c3ccccc3F)CC2)cc1 (configuration not stated),"inconclusive: 1.12 µM [cytotoxic, full curve]"
9,COc1ccc2nc(NC(=O)c3cc(=O)c4ccccc4o3)sc2c1,"inconclusive: 2.51 µM [cytotoxic, full curve]"
10,CCCCNC(=O)c1c(C)oc2ncn(CC(C)C)c(=O)c12,inactive
11,CCN1CCN(c2ncc3c(n2)CCN(Cc2ccc(Br)s2)C3)CC1,inactive
12,COc1ccc(OC)c(-c2cc(C(=O)Nc3cnn(Cc4ccc(Cl)cc4Cl)c3)no2)c1,"inconclusive: 12.6 µM [cytotoxic, partial curve]"
13,CCC(=O)Nc1ccc(NC(=O)c2cccc(OC)c2)nc1,"inconclusive: 10 µM [cytotoxic, partial curve]"
14,CCOc1ccc(/C=C/c2nc3ccccc3n2S(=O)(=O)c2ccc(Br)cc2)cc1,active: 12.6 µM
15,COc1cccc(NC(=O)Cn2c(=O)n(-c3ccc(Cl)cc3)c(=O)c3sc4ccccc4c32)c1,"inconclusive: 3.16 µM [cytotoxic, partial curve, poor fit]"
16,CCCCOc1ccccc1CC1C(=O)Nc2ccc(Br)cc21 (configuration not stated),"inconclusive: 20 µM [cytotoxic, single point]"
17,COc1ccc(-c2noc(N3CCC(C(=O)N4CCN(c5cccc(C)c5C)CC4)CC3)n2)cc1,"inconclusive: 35.5 µM [cytotoxic, single point]"
18,COc1ccc2cnn(-c3ccccc3C)c(=O)c2c1OC,"inconclusive: 35.5 µM [cytotoxic, single point]"
19,Cc1cccc(N2CCN(CCNC(=O)Nc3ccc(Cl)cc3)CC2)c1C,"inconclusive: 31.6 µM [cytotoxic, single point]"
20,COc1cc(C(=O)n2nc(C)c(Sc3ccc(Cl)cc3)c2C)cc(OC)c1OC,inactive
21,Oc1ccccc1-c1nc(/C=C/c2ccccc2Cl)nn1-c1ccccc1,"inconclusive: 31.6 µM [cytotoxic, single point]"

row,SMILES,Potency
1,CNc1ncnc2c1cnn2-c1ccc(C)c(C)c1,"inconclusive: 15.8 µM [cytotoxic, partial curve]"
2,COC(=O)c1c(SCC(=O)Nc2cc(OC)cc(OC)c2)[nH]c2ccc(C)cc2c1=O,"inconclusive: 2.51 µM [cytotoxic, full curve, poor fit]"
3,Cc1cccc(NC(=O)CSc2nnc3[nH]c(=O)cc(-c4ccccc4)n23)c1C,"inconclusive: 2.51 µM [cytotoxic, full curve]"
4,CC(=O)N1CCc2c(sc(NC(=O)CSc3ccccc3)c2-c2nc3ccccc3s2)C1,inactive
5,Nc1ccc2nc(-c3cccs3)[nH]c2c1,"inconclusive: 11.2 µM [cytotoxic, single point]"
6,CC(=O)Nc1ccc(NC(=O)CCCn2nc(C)c3sc4ccccc4c3c2=O)cc1,"inconclusive: 15.8 µM [cytotoxic, single point]"
7,O=C(Nc1ccc(OC(F)(F)F)cc1)c1cc2ccccn2n1,"inconclusive: 6.31 µM [cytotoxic, partial curve]"
8,COc1ccc(S(=O)(=O)NCCc2csc(-c3ccc(F)cc3)n2)cc1F,"inconclusive: 0.158 µM [cytotoxic, full curve, poor fit]"
9,Cc1cc(=O)n(CC(=O)N2CCN(c3ccccc3F)CC2)c2c1c(C)nn2C,inactive
10,O=C(CC(Nc1ccc(Cl)cc1)C(=O)O)c1ccccc1 (configuration not stated),"inconclusive: 12.6 µM [cytotoxic, partial curve]"
11,Cc1ccc(-c2nc3sc(CCNC(=O)c4ccc(Br)o4)c(C)n3n2)cc1,"inconclusive: 15.8 µM [cytotoxic, partial curve]"
12,O=C(N/N=C/c1cccc([N+](=O)[O-])c1O)c1cccs1,"inconclusive: 12.6 µM [cytotoxic, partial curve]"
13,CC(C)(C)OC(=O)N1CCC(c2c(C(=O)N3CCC(c4ccccc4)C3)cnn2-c2cccc(Cl)c2)CC1 (configuration not stated),"inconclusive: 31.6 µM [cytotoxic, single point]"
14,COc1cc(NC(=O)c2ccc(C)cc2)ccc1NC(=O)c1cc2ccccc2o1,inactive
15,Cc1ccc(C)c(CN2C(=O)C(=O)c3ccccc32)c1,inactive
16,COc1cccc(NC(=O)Nc2cccc(-c3cn4cccnc4n3)c2)c1,"inconclusive: 25.1 µM [cytotoxic, single point]"
17,Cc1nc2c(C(=O)NCc3ccccc3)c[nH]n2c(=O)c1Cc1ccccc1Cl,"inconclusive: 25.1 µM [cytotoxic, single point]"
18,COc1cccc(C2C=C(c3ccc(C)c(C)c3)Nc3nnnn32)c1OC (configuration not stated),"inconclusive: 15.8 µM [cytotoxic, partial curve]"
19,O=C(CSc1nnc(NC(=O)Nc2ccccc2)s1)Nc1cccc(F)c1,"inconclusive: 12.6 µM [cytotoxic, partial curve]"
20,Cc1ccc2sc(NC(=O)c3ccc4c(c3)OCCO4)nc2c1C,"inconclusive: 12.6 µM [cytotoxic, partial curve]"
21,CCN1C(=O)c2ccccc2Sc2ccc(NC(=O)c3ccc(Cl)cc3)cc21,"inconclusive: 6.31 µM [cytotoxic, single point]"
